Test results as given in PubChem BioAssay AID485344 (National Center for Advancing Translational Sciences (NCATS), 2010).
Hit rate of the full screen: of about 340,000 compounds, about 6,900 (2%) were called active. Cut-off read from the data, not from the text of the source: active = inhibition above about 30%; inactive = below that, where a call was filed. The list shows a part of the results, in another mix than the full data. Entries without a call were filed so in the source. Some compounds were tested as several samples or in several runs, with calls that do not always agree.

Target: D(2) dopamine receptor (Homo sapiens) (UniProt P14416)
Test: HTS Assay for Allosteric Antagonists of the Human D2 Dopamine Receptor: Primary Screen for Antagonists; note: 0% is about no effect
Details: HEK293 TREx D2 cells, calcium flux, dopamine EC80; at 10 µM; stronger effect = higher value
Procedure, shortened: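 Antagonism is scored as inhibition of an EC80 dopamine-evoked calcium signal in a force-coupled, tetracycline-inducible HEK293 T-REx D2 line, with compound present 180 s before agonist.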

UniProt P14416, sequence (P14416 whole entry, looked up): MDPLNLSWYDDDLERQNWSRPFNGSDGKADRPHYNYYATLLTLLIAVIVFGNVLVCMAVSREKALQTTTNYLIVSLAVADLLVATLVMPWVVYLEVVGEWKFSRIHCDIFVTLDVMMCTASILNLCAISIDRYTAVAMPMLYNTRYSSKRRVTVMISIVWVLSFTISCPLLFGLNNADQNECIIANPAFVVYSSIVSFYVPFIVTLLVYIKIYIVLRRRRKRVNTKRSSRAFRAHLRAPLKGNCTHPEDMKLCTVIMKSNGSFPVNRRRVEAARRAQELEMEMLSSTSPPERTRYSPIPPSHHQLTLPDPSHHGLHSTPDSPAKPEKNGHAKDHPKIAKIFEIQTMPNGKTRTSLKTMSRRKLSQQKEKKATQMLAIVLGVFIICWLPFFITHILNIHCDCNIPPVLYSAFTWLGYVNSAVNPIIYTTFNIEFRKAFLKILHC

First: CCOc1ccc(NC(=O)c2ccc3c(c2)nnn3C2CCCC2)cc1
Second: CCN(CC)S(=O)(=O)c1ccc(NC(=O)c2ccc3c(=O)n4c(nc3c2)CCCCC4)cc1
The inhibition of the first is higher: -6.75% for the first, -8.53% for the second.

Going from `Cc1ccccc1CNC(=O)CCc1cn(Cc2ccccc2C)c2ccccc12` to `O=C(CCCCn1c(=O)c2ccccc2n(Cc2ccccc2Cl)c1=O)NCCc1ccccc1`, the inhibition falls from 12.5% to 9.45%.

Compared with `CC(C)(C)c1ccc(C(=O)N2CCC(c3noc(-c4ccc(S(=O)(=O)N5CCCC5)cc4)n3)CC2)cc1`, `Cc1ccc(Cn2c(=O)n(CC3CCC(C(=O)N4CCC(C)CC4)CC3)c(=O)c3sccc32)cc1` (configuration not stated) is lower in inhibition: 1.67% for the first, -4.6% for the second.

First: O=C(Nc1cc(C(F)(F)F)ccc1Cl)c1cc(-c2cccs2)nc2ccccc12
Second: Cc1cc(OCCn2cc(C(=O)c3cccs3)c3ccccc32)ccc1Cl
The inhibition of the first is lower: -6.18% for the first, 2.83% for the second.

First: Cc1cc(C)c(S(=O)(=O)NCCc2sc(-c3cccnc3)nc2C)c(C)c1
Second: Cc1cc(C)c(S(=O)(=O)NCCc2cc3cc(C)c(C)cc3[nH]c2=O)c(C)c1
The inhibition of the first is lower: -12.2% for the first, 15.2% for the second.

Compared with `Cc1cc(S(=O)(=O)Nc2cc3c(cc2Cl)n(C)c(=O)c(=O)n3C)ccc1F`, `Cc1cc2c(cc1NS(=O)(=O)c1ccc(F)cc1)n(C)c(=O)c(=O)n2C` is higher in inhibition: -1.91% for the first, 11.7% for the second.

First: Cn1c(=O)c2cc(C(=O)N3CCN(c4cccc(C(F)(F)F)c4)CC3)sc2c2ccccc21
Second: Cc1ccc2nc(N3CCN(c4cccc(C(F)(F)F)c4)CC3)c3nnnn3c2c1
The inhibition of the first is higher: -7.42% for the first, -17.4% for the second.

Compared with `Cc1c(Cl)cccc1NC(=O)C1CCCN(C(=O)c2cnn(-c3ccccc3)c2-n2cccc2)C1` (configuration not stated), `Cc1c(Cl)cccc1NC(=O)NCc1c(-n2cccc2)sc2c1CCCC2` is higher in inhibition: 3.22% for the first, 26.5% for the second.

Compared with `O=C(Nc1nc2ccc(F)cc2s1)c1nc(SCc2ccccc2F)ncc1Cl`, `Cc1c(C(=O)Nc2cccc(F)c2)oc2c1-c1nn(Cc3c(F)cccc3Cl)cc1CC2` is lower in inhibition: -11.1% for the first, -16.3% for the second.

First: O=C(CN1C(=O)COc2ccc(S(=O)(=O)N3CCOCC3)cc21)Nc1ccc(F)c(Cl)c1
Second: O=C(Nc1ccc2nc(SCC(=O)N3CCOCC3)sc2c1)c1cccc(Cl)c1
The inhibition of the first is higher: -5.4% for the first, -20% for the second.

Going from `O=C(Nc1nc2c(F)cc(F)cc2s1)c1ccc2c(c1)OCCO2` to `Cc1c(Cl)cccc1NC(=O)COCc1cc(-c2ccc3c(c2)OCO3)on1`, the inhibition falls from -6.76% to -8.75%.

First: COc1cc(OC)c(N(C)C(=O)c2cn(C)c(=O)c3cc(OC)c(OC)cc23)cc1Cl
Second: COc1ccc(CCNC(=O)c2cnc3ccc(C)cn3c2=O)cc1OC
The inhibition of the first is lower: 2.54% for the first, 11.9% for the second.

First: O=C(NCCc1ccc(Cl)cc1)C(=O)NCC(c1ccc2c(c1)OCO2)N1CCOCC1 (configuration not stated)
Second: CCc1ccc(NCc2cc3cc4c(cc3n(CC(=O)Nc3cccc(OC)c3)c2=O)OCO4)cc1
The inhibition of the first is lower: -14.3% for the first, 11.9% for the second.

Compared with `Cc1ccc(C)c(N2CCN(S(=O)(=O)c3ccc(-c4cc(C(F)(F)F)on4)s3)CC2)c1`, `Cc1ccc(NC(=O)C2CCCN(c3nnc(-n4c(C)ccc4C)s3)C2)c(C)c1` (configuration not stated) is higher in inhibition: -2.51% for the first, 2.81% for the second.

Going from `CCOc1ccc(NC(=O)CSc2ncn[nH]2)cc1` to `COc1ccc(NC(=O)CSc2nnc(-c3ccc(OC)cc3)s2)cc1`, the inhibition rises from -14.4% to 7.92%.

Compared with `CCOC(=O)c1cc(-c2ccc(OC)cc2)n(CCC(=O)NCc2ccccc2OC)c1C`, `COc1ccc(NC(=O)Cn2c(=O)n(CCC(=O)NCc3ccccc3OC)c(=O)c3ccccc32)cc1Cl` is higher in inhibition: -5.92% for the first, -3.42% for the second.

First: Cc1ccsc1CN(Cc1ccco1)C(=O)c1ccc(Cl)cc1
Second: Cc1ccc(N(Cc2cccs2)C(=O)Nc2cccc(Cl)c2)cc1
The inhibition of the first is lower: 2.54% for the first, 2.58% for the second.

Going from `Cc1c(C(=O)Nc2ccc(F)cc2F)oc2ccc3c(c12)C(=O)CC(C)(C)O3` to `Cc1ccc2nc(-c3ccc(Cl)c(NC(=O)COc4cccc(C)c4C)c3)oc2c1`, the inhibition falls from -0.963% to -21.8%.

Compared with `Cn1ncc2c(NCc3ccc(Cl)cc3)ncnc21`, `Cc1cccc(N2CCN(CCCNc3ncnc4onc(-c5ccc(Cl)cc5)c34)CC2C)c1` (configuration not stated) is lower in inhibition: 10.8% for the first, 9.6% for the second.

Compared with `CC(C)OCCCNc1sc(S(=O)(=O)c2ccccc2)nc1S(=O)(=O)c1ccc(Cl)cc1`, `Cc1cc(NS(=O)(=O)c2ccc(NC(=O)c3ccccc3C)cc2)nc(C)n1` is higher in inhibition: -23.2% for the first, 10.6% for the second.

Going from `CCOc1ccccc1NC(=O)CSc1nc2c(oc3ccccc32)c(=O)n1C(C)C` to `CCOc1ccccc1NC(=O)Cn1cnc2c1c(=O)n(C)c(=O)n2C`, the inhibition rises from -1.18% to 0.731%.

Going from `COc1ccc(N2CC3=C(C2=O)C(c2ccc(O)c(OC)c2)NC(=O)N3C)cc1` (configuration not stated) to `COc1ccc(N(C(=O)c2ccc(OC)c(OC)c2)S(=O)(=O)c2ccc(Cl)cc2)cc1`, the inhibition falls from -3.94% to -4.38%.

First: CCOC(=O)c1ccccc1NC(=O)c1cc2c(s1)-c1c(C)cccc1OC2
Second: Cc1oc2c(c1C(=O)Nc1ccccc1Br)C1=NCCN1C=N2
The inhibition of the first is lower: -5.48% for the first, -4.61% for the second.

First: Cc1ccc(CNC(=O)c2c(O)nc3ccccn3c2=O)cc1
Second: Cc1ccc(Cn2ccn(Cc3ccccc3F)c(=O)c2=O)cc1
The inhibition of the first is higher: 6.63% for the first, -4.28% for the second.

Compared with `COc1cccc(CNC(=O)c2sc3nc4n(c(=O)c3c2C)CCC4)c1`, `COc1cccc(CNC(=O)CCc2c(C)nc3c(c(C)nn3-c3ccc(C)c(C)c3)c2C)c1` is lower in inhibition: 2.56% for the first, -20.1% for the second.

First: O=C(NCCc1cccs1)c1ccc(Cn2c(SCc3ccccc3)nc3cccnc32)cc1
Second: CSc1ccc(CCNC(=O)c2ccc(-c3nc(COc4ccccc4)c(C)o3)cc2)cc1
The inhibition of the first is higher: 15.5% for the first, -10.3% for the second.

First: COc1cc(C(CC(=O)Nc2ccc(Br)cn2)N2Cc3ccccc3C2=O)cc(OC)c1OC (configuration not stated)
Second: CCCC(C(=O)NCc1cccc(Cl)c1)N1Cc2ccccc2C1=O (configuration not stated)
The inhibition of the first is higher: 4.23% for the first, -1.22% for the second.

Going from `COc1cccc(C(c2sc3nc(-c4ccco4)nn3c2O)N2CCOCC2)c1` (configuration not stated) to `O=C(C1COc2ccccc2O1)N1CCN(c2nc3c(F)cccc3s2)CC1` (configuration not stated), the inhibition rises from -21.2% to -11.3%.

First: Cc1ccc(Nc2nc3ccc(C)cc3nc2-n2nc(C)cc2C)c(C)c1
Second: COCCNC(=O)Cn1nc(C)c2c(C)n(-c3ccc(C)cc3)nc2c1=O
The inhibition of the first is higher: 5.01% for the first, -9.61% for the second.

Going from `CC(C)C(=O)Nc1nnc(S(=O)(=O)N2CCCCCC2)s1` to `CC(C)COc1ccc(C(=O)NCC2(N3CCN(C)CC3)CCCCC2)cc1`, the inhibition falls from 13.5% to 1.77%.

Compared with `COCCNC(=O)C1CCC(CNS(=O)(=O)c2ccc3c(c2)CC(C)N3C(C)=O)CC1` (configuration not stated), `CCN1CCOC(=O)C1CC(=O)Nc1cc(C)ccc1OC` (configuration not stated) is higher in inhibition: 9.61% for the first, 14.4% for the second.

First: COc1ccc(N(CC(=O)NCc2ccccc2Cl)S(=O)(=O)c2c(C)[nH]c(=O)[nH]c2=O)cc1
Second: CN(C)c1ccc(CNC(=O)CN2C(=O)c3cccnc3Oc3ccc(Cl)cc32)cc1
The inhibition of the first is higher: 0.259% for the first, -13.9% for the second.

Going from `O=S(=O)(NCCc1nnc2ccc(SCc3ccc(C(F)(F)F)cc3)nn12)c1ccccc1` to `CCc1ccc2ncc3c(-c4ccccc4)nn(-c4ccccc4)c3c2c1`, the inhibition rises from 1.3% to 16.6%.

Going from `Cc1oc2ccc(O)c(CN3CCN(Cc4ccccc4)CC3)c2c1C(=O)Nc1ccccc1` to `Cc1nc2c(-c3ccccc3)c(C)nn2c(C)c1CCC(=O)N1CCN(c2ccc(F)cc2)CC1`, the inhibition rises from -2.38% to 19.6%.

First: N#Cc1ccccc1Cn1c(=O)n(CCCC(=O)NCc2ccc3c(c2)OCO3)c(=O)c2sccc21
Second: COc1ccc(CCNC(=O)CCn2c(=O)c3ccccc3n(Cc3cc(C)ccc3C)c2=O)cc1OC
The inhibition of the first is higher: -11.5% for the first, -18.1% for the second.

Going from `CCCN(CCC)C(=O)Cn1c(=O)n(-c2cccc(OC)c2)c(=O)c2c3c(sc21)CCCC3` to `CCN(CC)c1ccc(NC(=O)CCS(=O)(=O)c2cc3c(cc2Cl)NC(=O)CO3)c(C)c1`, the inhibition falls from 15% to -1.32%.

First: Cc1ccn2c(=O)cc(COc3ccc(NC(=O)COc4ccc(Cl)cc4)cc3)nc2c1
Second: Cc1csc2nc(COC(=O)c3cccc(NC(=O)COc4ccc(Cl)cc4)c3)cc(=O)n12
The inhibition of the first is lower: -5.13% for the first, -1.46% for the second.

Going from `CCc1nnc(SCC(=O)Nc2ccccc2Cl)nc1CC` to `Cc1cccc(NC(=O)c2ccc3snnc3c2)c1`, the inhibition rises from -17.7% to 3.67%.

First: Cc1ccc(C)c(NC(=O)CC2NCCNC2=O)c1 (configuration not stated)
Second: CCc1cccc(C)c1NS(=O)(=O)c1cc2[nH]c(=O)c(=O)[nH]c2cc1C
The inhibition of the first is higher: -5.59% for the first, -9.38% for the second.

First: CCCc1cc(=O)[nH]c2nnc(SC(C)CC)n12 (configuration not stated)
Second: CCOC(=O)c1sc(NC(=O)/C=C/c2ccc(C(C)C)cc2)c(C(=O)OCC)c1C
The inhibition of the first is higher: 21.2% for the first, 0.272% for the second.

Work on `Cc1c(C(=O)OCCOc2ccccc2)[nH]c2c1C(=O)CC(c1ccccc1)C2` (configuration not stated) yielded an inhibition of -2.89%.

In the case of `Cc1ncc(C[n+]2csc(CCO)c2C)c(N)n1`, the inhibition was active: 67.8%.
With `COc1ccc(NC(=O)C(=O)NCCN2CCN(C(=O)c3ccc(C)cc3)CC2)cc1` the inhibition was active: 46%.
For `CCOc1cccc(CN2CCCC(C(=O)c3cc(Cl)ccc3OC)C2)c1O` (configuration not stated), the inhibition was active: 65.6%.
With `CS(=O)(=O)N(CC(=O)NCc1ccccc1)C1CCCCC1` the inhibition was active: 36.9%.
In the case of `O=C1C2CCCCN2C(=O)N1CCCCN1CCN(c2cccc(Cl)c2)CC1` (configuration not stated), the inhibition was active: 91.7%.
With `Cc1ccc(NC(=O)C[n+]2cc(-c3ccccc3)n3c2CCC3)cc1` the inhibition was active: 56.1%.
`CCOc1ccc(N2CC(C(=O)N3CCCc4ccccc43)CC2=O)cc1` (configuration not stated) was tested, and the inhibition was active: 55.8%.
For `CCC(=O)Nc1ccc2c(c1)nc(CCN1CCN(c3ccccn3)CC1)n2C`, the inhibition was active: 57%.
In the case of `O=C(COC(=O)C1C2CC3OC(=O)C1C3C2)Nc1ccccc1` (configuration not stated), the inhibition was active: 69.5%.
For `CCOC(=O)C(C)(C)Sc1nc2c(cnn2-c2ccc(C)cc2)c(=O)[nH]1`, the inhibition was active: 47.8%.
For `COc1ccc(Cl)cc1NC(=O)CN(C)C(=O)CCC(=O)c1cc(C)sc1C`, the inhibition was active: 62.5%.
`Cc1ccc(NC(=O)NCc2ccccn2)cc1` was tested, and the inhibition was active: 59.3%.
In the case of `COc1cccc(OC)c1OCC(O)CN1CCN(c2ccccc2F)CC1` (configuration not stated), the inhibition was active: 85.7%.
For `CN(C)CCN(Cc1cc2cc3c(cc2[nH]c1=O)OCCO3)C(=S)NCC1CCCO1` (configuration not stated), the inhibition was active: 40.8%.
With `CN(CC(=O)NC1CCN(Cc2ccccc2)CC1)S(=O)(=O)c1ccc(Cl)s1` the inhibition was active: 68.5%.
For `Cc1nc2scc(C)n2c(=O)c1S(=O)(=O)N1CCN(c2ccccc2)CC1`, the inhibition was active: 31.8%.
